Source: the supplement of paper PMC11417369
This is one part of the list.

These sequences were tested on PfSIP2 AP2 domain 1 (GST-tagged) (assay: gcPBM binding intensity (ln(normalized median fluorescence intensity)); higher = stronger DNA binding).
In short: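 GST-tagged P. falciparum DNA-binding domains, expressed in E. coli (about 25 μg on average), were applied for 1 h to an Agilent 4 × 180k array of primer-extended double-stranded 36-bp intergenic genomic probes plus negative controls. The binding buffer was 1× PBS with 1% milk, 0.2 mg/ml BSA, 0.5% salmon testes DNA and 0.03% Triton X-100. Bound protein was detected with Alexa488 anti-GST antibody and scanned at 488 nm. Binding intensity is the highest Masliner-normalised natural-log median intensity across replicate spots of either probe orientation.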

| Sequence | gcPBM binding intensity (ln) |
| --- | --- |
| TATATACATACATATACACACATATATATATATATA [CACACA_site401] | 9.34 |
| GTATAAAATATTGATTGTACTTTATTCATTTTTTTT [XGTACX_site2520] | 6.95 |
| TCATATTCCAAGTGTACACATAAATCCCTAATAACA [CACACA_site5167] | 7.33 |
| TCATTGTTTAATATGTGTCCTCAAAATTTGTTATAT [XGTACX_site677] | 7.09 |
| TCTTGTTAATATATTAAATATATCTATAAATATATA [XGTACX_negctrl_site486] | 7.09 |
| TATATGTGATAACACGCACACAAATGTATATAATTT [CACACA_site2593] | 7.12 |
| AAAAAAAAAAAACATACACACATTGAACTTTTATAT [CACACA_site3250] | 6.93 |
| ATAAAATAAAAATTCTGTACAGAATTAAAAAAATAT [XGTACX_site6961] | 7.09 |
| TGTAGCATTTAATTCACACATAAAAAATGTATCCAT [CACACA_site4986] | 6.94 |
| AAAAAAAGTAAAAAGTGTACTTAATATATATATATA [XGTACX_site838] | 9.07 |
| TACAATATACCTACTTGTACACAAAATAAAAGTAGT [XGTACX_site6029] | 7.13 |
| TTTTATATAAATATCACACACACACGCATGTTTTAA [CACACA_site6187] | 7.07 |
| TACACACCTAACTATGCATGCATCAATATAGTGGAT [TGCATGCA_site443] | 7.02 |
| TATTCATGCATATACACACACATATATATATATTTT [CACACA_site3955] | 7.57 |
| AAAAAAAAATTAAACATACACACGTTACTATTTTTA [CACACA_site1687] | 6.81 |
| ATCATAATTTATTATACACACAATACGTGACCTATT [CACACA_site6977] | 7.12 |
| AATGAAAAATTGTAATGTACATAAATAAATAAATAA [XGTACX_site4048] | 7.23 |
| TACACCCAGAAATGCACACACATATATATATATATA [CACACA_site5289] | 9.44 |
| ATGAACATGTGACAATGTACATTTATATCTTAAGAA [XGTACX_site4960] | 7.02 |
| ATAATATATATATATATGTATGTATATATGTATGTA [GTGCAC_negctrl_site575] | 7.39 |
| TATTCTTATTATTACACACACAATTATATTTACCCC [CACACA_site6381] | 7.48 |
| TATATATATATAATAGCATGCTATATTATATATATA [TGCATGCA_site886] | 9.16 |

| Sequence | gcPBM binding intensity (ln) |
| --- | --- |
| TTAACATAAATTGTGTCATTTTTTTTTTTTTTTTTA [CACACA_negctrl_site1221] | 6.61 |
| TATTTTTTAATTGTTTCACACATTATTTTTTACATA [CACACA_site6078] | 6.94 |
| TTAACACATTTTATGTGTACTCATATGATTTAAAAT [XGTACX_site7516] | 7.1 |
| TTAAAATGAAGAAGTGCACACATATATATATTTATA [CACACA_site8063] | 10.4 |
| AATTTTTTTTTCTTTTGTACGTAAATATGTGTAGGC [XGTACX_site215] | 8.15 |
| CTAATAAAAAAAAAAAGTACATATGACAATATAAAG [XGTACX_site1598] | 6.94 |
| TATATATTAGTGTTGACACACACAAAAAAAAAAAAA [CACACA_site8392] | 7.21 |
| TATAAACAGACGAAAACACACATATGTAGATATATA [CACACA_site6371] | 6.84 |
| ATCAGGCAAAATTTTTGTACATATATATTTTATTTT [XGTACX_site1245] | 7.09 |
| ATTTTTTTTTTTTTTTTTTTTTTTTATGAATGTTAT [CACACA_negctrl_site1319] | 6.99 |
| AGATTTCAAGGTAATAGATCAATTTTAATTTGTAAA [CACACA_negctrl_site514] | 6.6 |
| ATTTTTTTTTTTTTTTTTTTTTTTTTTTTTTTTTTT [CACACA_negctrl_site1364] | 9 |
| TATAAAATACTGTATCGATGGGGGAGGGCGCAGGGG [TGCATGCA_negctrl_site250] | 8.43 |
| AAAAAAAAAAAAAAAAAAAAAAAAAAAGATTATGAG [CACACA_negctrl_site1088] | 8.62 |
| TCAAATGTATATAATTGTACTTATCCTTTTCATTTT [XGTACX_site4879] | 6.98 |
| AAAAATTAGAAACACACACACATATATATATATATT [CACACA_site1042] | 7.31 |
| TTTTAAGTTTTTGAATGTACGTAATTTGTAAATTCT [XGTACX_site2448] | 6.9 |
| TTACTTGTTTATTTTTTTTTTTTTTTTTTTTTTGTT [TGCATGCA_negctrl_site103] | 6.91 |
| TAATGGAGAAAATAATGTACTTAGATATTTGTTCTA [XGTACX_site6312] | 6.75 |
| AAGAACAAACAAAATAGTACAATATATATATATATA [XGTACX_site4258] | 9.48 |
| TTTAAATATTTTATAGCATGCTACCAATATGTATAT [TGCATGCA_site291] | 7.15 |
